The supplement of paper PMC3334620
In all, about 33,000 sequences were measured (“E-score (-0.5 to 0.5)”: median about -0.016, highest 2% from about 0.31 on). The list shows a part of the results.

What follows are sequences tested against Cst6 (UniProt P40535) (assay: PBM E-score (8-mer binding enrichment) (E-score (-0.5 to 0.5)); higher = stronger / more preferred TF binding; most listed sequences are background and not binding sites). Conditions: protein concentration: 200 nM; construct: GST-DNA-binding domain.
How it was run: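 Yeast transcription factors, full-length or as DNA-binding domains, were expressed with a GST tag using PURExpress in vitro transcription/translation. At about 100-200 nM they were applied to universal all-10-mer Agilent arrays, double-stranded by primer extension on fresh or once-stripped slides. Fluorescent anti-GST detected bound protein, and masliner normalised the scans. E-scores for ungapped eight-base words, pooled with reverse complements, came from the Universal PBM Analysis Suite.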

CCACAGTA was tested. Which “PBM E-score” value did it give?
The value was 0.122.

With ACGGGCAG as the sequence, how does the “PBM E-score” value read?
The value was -0.0649.

For ATTTGTTA, which “PBM E-score” value is on record?
Its value is 0.22.

For GAGATTAA, which “PBM E-score” value is on record?
The value was 0.0823.

With ACCCACAC as the sequence, how does the “PBM E-score” value read?
Its value is 0.0699.

How did the “PBM E-score” value turn out when GGGCGCTA was run?
Its value is 0.0186.

ATCCCAAG was tested. Which “PBM E-score” value did it give?
The value was -0.137.

Which “PBM E-score” value does the source give for CGTCCAAG here?
The value was -0.249.

For ATCTTATC, which “PBM E-score” value is on record?
Its value is 0.156.

How did the “PBM E-score” value turn out when TGTCTAAA was run?
Its value is 0.234.

CCTGGGTC was tested. Which “PBM E-score” value did it give?
Its value is -0.261.

AGTTGATG was tested. Which “PBM E-score” value did it give?
The value was 0.127.

How did the “PBM E-score” value turn out when AAGTACAG was run?
Its value is -0.124.

How did the “PBM E-score” value turn out when ATCTGAAG was run?
Its value is -0.147.

AATCGTTC was tested. Which “PBM E-score” value did it give?
Its value is 0.0185.

With AAATTGCT as the sequence, how does the “PBM E-score” value read?
Its value is 0.00285.

With CGCAGCAA as the sequence, how does the “PBM E-score” value read?
Its value is -0.0572.

With GACGCAGA as the sequence, how does the “PBM E-score” value read?
The value was 0.14.

GAGTTAAA was tested. Which “PBM E-score” value did it give?
The value was 0.129.

How did the “PBM E-score” value turn out when GGAAGGAC was run?
Its value is -0.177.

With CATAGATG as the sequence, how does the “PBM E-score” value read?
Its value is -0.156.

GGAGAGCA was tested. Which “PBM E-score” value did it give?
The value was -0.196.

Which “PBM E-score” value does the source give for GAGGGCGC here?
Its value is -0.0984.

How did the “PBM E-score” value turn out when CTCAATAA was run?
The value was 0.00148.

How did the “PBM E-score” value turn out when AGTCCAAT was run?
Its value is -0.0617.

With TCAACACA as the sequence, how does the “PBM E-score” value read?
Its value is 0.288.

How did the “PBM E-score” value turn out when GCGCGGCA was run?
The value was 0.264.

For TACCGTAA, which “PBM E-score” value is on record?
The value was 0.222.

For GCTATCGA, which “PBM E-score” value is on record?
The value was -0.0782.

For AAAGGGTC, which “PBM E-score” value is on record?
The value was -0.129.

For AGGGCACG, which “PBM E-score” value is on record?
The value was -0.183.

How did the “PBM E-score” value turn out when GTAGTCCA was run?
Its value is -0.0929.

How did the “PBM E-score” value turn out when CTCCTCAC was run?
Its value is -0.25.

With GATGAACA as the sequence, how does the “PBM E-score” value read?
The value was 0.0215.

For CTTGTTTC, which “PBM E-score” value is on record?
The value was 0.125.

ATCTTCAT was tested. Which “PBM E-score” value did it give?
Its value is 0.0326.

How did the “PBM E-score” value turn out when ACCCTCTA was run?
The value was -0.257.

How did the “PBM E-score” value turn out when ACATGGAT was run?
Its value is 0.163.

Which “PBM E-score” value does the source give for AACTGCGT here?
Its value is 0.0317.

For CATCTTTA, which “PBM E-score” value is on record?
Its value is 0.1.

Which “PBM E-score” value does the source give for AAAATTAT here?
The value was 0.378.

Which “PBM E-score” value does the source give for ATAGTCCC here?
The value was -0.242.

Which “PBM E-score” value does the source give for AACGACAC here?
The value was -0.0292.

With ATCCGGAA as the sequence, how does the “PBM E-score” value read?
Its value is -0.0217.

How did the “PBM E-score” value turn out when ATACGTTA was run?
Its value is 0.265.

With AACGATAG as the sequence, how does the “PBM E-score” value read?
Its value is 0.0747.

How did the “PBM E-score” value turn out when CTAGCCCC was run?
The value was -0.171.

For ATCAGAGC, which “PBM E-score” value is on record?
Its value is 0.0745.

How did the “PBM E-score” value turn out when GCACTAGA was run?
Its value is -0.197.

For CCTCGTGC, which “PBM E-score” value is on record?
The value was -0.118.

For CCTCGGAA, which “PBM E-score” value is on record?
Its value is -0.105.

Which “PBM E-score” value does the source give for CAAGCGAC here?
The value was -0.0775.

GCTTAGCA was tested. Which “PBM E-score” value did it give?
Its value is -0.207.

Which “PBM E-score” value does the source give for ACTCATAG here?
Its value is 0.152.

ACCTTGGC was tested. Which “PBM E-score” value did it give?
The value was -0.281.

Which “PBM E-score” value does the source give for CAAACATG here?
The value was 0.0448.

For CTTGGTTC, which “PBM E-score” value is on record?
The value was 0.0801.

For ACGTCGTC, which “PBM E-score” value is on record?
The value was 0.199.

Which “PBM E-score” value does the source give for CACAATAC here?
Its value is -0.0167.

For AGCCAAAA, which “PBM E-score” value is on record?
The value was 0.0307.

For AGTTCGTA, which “PBM E-score” value is on record?
The value was 0.0158.

Which “PBM E-score” value does the source give for TGCGTCCA here?
Its value is -0.0683.

CTTCCGCA was tested. Which “PBM E-score” value did it give?
Its value is -0.209.

How did the “PBM E-score” value turn out when ACATATCA was run?
The value was 0.249.

With CTGGAAAG as the sequence, how does the “PBM E-score” value read?
The value was -0.0799.

How did the “PBM E-score” value turn out when CGAGTGGC was run?
The value was -0.0795.

Which “PBM E-score” value does the source give for CTATGGAA here?
The value was -0.0199.

With GTAGGAAC as the sequence, how does the “PBM E-score” value read?
Its value is -0.0341.

How did the “PBM E-score” value turn out when GAATACCA was run?
The value was 0.00536.

For AAAGGGGC, which “PBM E-score” value is on record?
Its value is -0.196.

Which “PBM E-score” value does the source give for AAGCCGGG here?
Its value is -0.136.

With TCCCTACA as the sequence, how does the “PBM E-score” value read?
The value was -0.064.

With CGTTGTGA as the sequence, how does the “PBM E-score” value read?
Its value is 0.0602.

With CCTCTCAC as the sequence, how does the “PBM E-score” value read?
The value was -0.15.

With CCCAAGTC as the sequence, how does the “PBM E-score” value read?
The value was -0.314.

For CACAGAAA, which “PBM E-score” value is on record?
Its value is 0.116.

Which “PBM E-score” value does the source give for GACTATGA here?
Its value is 0.0652.

With CGGCATAA as the sequence, how does the “PBM E-score” value read?
Its value is 0.135.

CTCAGGGC was tested. Which “PBM E-score” value did it give?
The value was -0.195.

Which “PBM E-score” value does the source give for CTGCCTCC here?
The value was -0.327.

Which “PBM E-score” value does the source give for TTAACCAA here?
The value was 0.114.

For GAAACGCA, which “PBM E-score” value is on record?
Its value is 0.172.

For CATTCATA, which “PBM E-score” value is on record?
The value was 0.181.

Which “PBM E-score” value does the source give for ACCCTAAG here?
The value was -0.176.

AAAGCCTA was tested. Which “PBM E-score” value did it give?
The value was 0.0532.

TCTCTTCA was tested. Which “PBM E-score” value did it give?
Its value is -0.11.

For ATGTGTTA, which “PBM E-score” value is on record?
The value was 0.167.

Which “PBM E-score” value does the source give for CTCCCCAG here?
The value was -0.386.

Which “PBM E-score” value does the source give for TAGGTGAA here?
Its value is 0.0649.

Which “PBM E-score” value does the source give for CTAGGGCA here?
The value was -0.332.

Which “PBM E-score” value does the source give for AGTCTCGC here?
Its value is -0.0217.

How did the “PBM E-score” value turn out when AACGGCAA was run?
Its value is 0.251.

How did the “PBM E-score” value turn out when GCGACCAA was run?
Its value is 0.0136.

For CGCGTAAA, which “PBM E-score” value is on record?
The value was 0.187.
